Measurements published in the supplement of paper PMC12217912.
This is one part of the list. Sequences were assembled here from the parent chain. Values near 0.05 are background.

B1: TEV protease; numbered along this chain (parent)
chain: MGESLFKGPRDYNPISSSICHLTNESDGHTTSLYGIGFGPFIITNKHLFRRNNGTLVVQSLHGVFKVKDTTTLQQHLVDGRDMIIIRMPKDFPPFPQKLKFREPQREERICLVTTNFQTKSMSSMVSDTSCTFPSGDGIFWKHWIQTKDGQCGSPLVSTRDGFIVGIHSASNFTNTNNYFTSVPKNFMELLTNQEAQQWVSGWRLNADSVLWGGHKVFMVKPEEPFQPVKEATQL

Variants of: B1
Test: raw area under fraction-flipped curve 0-4 h after induction (AUC4h, not background-subtracted), DNA-recorder readout of cleavage of the substrate (dimensionless); higher = more cleavage of the substrate by the protease variant
Conditions: temperature: 34 °C; time window: 0-4 h after rhamnose induction
Procedure: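 In vivo DNA recorder in E. coli TOP10(DE3) ΔrhaA at 34 °C. Each TEVp single-site mutant (parent TEVp 0) is paired with a single-site variant of the 7-mer TEVs (canonical ENLYFQ|S). The substrate sits between flexible linkers in a Bxb1-sfGFP-TEVs-SsrA fusion, so cleavage stabilises Bxb1 and speeds flipping of a recombination array, read by NGS. The value is the raw area under the fraction-flipped curve over 0-4 h after rhamnose induction (AUC4h), with ≥20 reads per time point. It is not background-subtracted; inactive controls average about 0.047.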
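Further: Bxb1 expression induced with 0.2% (w/v) L-rhamnose at OD600 near 0.5, cultures sampled hourly, flipped fraction per protease–substrate barcode pair counted by paired-end Illumina sequencing.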

Row | Variant | area with substrate ENAYFQS | area with substrate ENDYFQS | area with substrate ENGYFQS | area with substrate ENHYFQS | area with substrate ENIYFQS | area with substrate ENKYFQS | area with substrate ENMYFQS | area with substrate ENPYFQS | area with substrate ENQYFQS | area with substrate ENSYFQS | area with substrate ENTYFQS | area with substrate ENVYFQS | area with substrate ENWYFQS | area with substrate ENEYFQS | area with substrate ENFYFQS | area with substrate ENCYFQS | area with substrate ENNYFQS | area with substrate ENYYFQS | area with substrate ENRYFQS
1 | S158D | 0.0472 | 0.064 | 0.0537 | 0.058 | 0.0907 | 0.0636 | 0.0831 | 0.0591 | 0.0507 | 0.0604 | 0.0439 | 0.0561 | 0.0155 |  |  |  |  |  | 
2 | S158I | 0.0529 |  |  |  |  |  |  |  | 0.0462 | 0.0542 | 0.049 | 0.066 | 0.0421 | 0.0564 | 0.0621 |  |  |  | 
3 | R160P | 0.0561 | 0.0529 | 0.0594 | 0.0557 | 0.0763 | 0.0521 | 0.0631 | 0.0541 | 0.0562 | 0.055 | 0.0767 | 0.0656 |  | 0.0583 | 0.0591 | 0.0613 | 0.0461 | 0.0552 | 
4 | D161R | 0.0532 | 0.0715 | 0.0522 | 0.0371 | 0.0597 |  | 0.0674 |  | 0.0586 | 0.0579 | 0.0536 | 0.0558 | 0.0428 | 0.0562 |  | 0.0476 | 0.0448 |  | 
5 | D161Y | 0.0434 |  |  | 0.028 |  | 0.0502 |  | 0.0614 | 0.0647 | 0.0664 |  | 0.0508 | 0.0007 | 0.0282 |  | 0.0571 | 0.0559 | 0.0431 | 0.0472
6 | G162A | 0.0536 | 0.0326 | 0.0766 | 0.0756 |  |  |  |  |  | 0.0545 | 0.0644 | 0.0761 | 0.0591 |  |  |  | 0.0733 |  | 0.0348
7 | I164M | 0.0553 | 0.0598 | 0.0601 | 0.0636 |  | 0.0461 | 0.054 | 0.049 | 0.0587 | 0.0602 | 0.0612 | 0.0633 | 0.0584 | 0.0635 | 0.0567 | 0.063 | 0.0605 | 0.0637 | 0.0495
8 | V165A | 0.0626 | 0.0564 |  |  |  |  |  | 0.0433 | 0.0451 | 0.0565 | 0.0509 | 0.0486 |  | 0.0606 | 0.0421 | 0.0627 | 0.0566 | 0.049 | 0.0623
9 | G166I | 0.0588 |  | 0.0691 |  |  | 0.0569 | 0.0524 | 0.0498 | 0.0442 | 0.0516 |  | 0.0699 | 0.0389 | 0.0458 | 0.0554 | 0.0467 | 0.0613 | 0.0405 | 0.0505
10 | I167S | 0.0351 | 0.0615 | 0.0441 | 0.0717 |  | 0.0727 |  | 0.0494 | 0.0604 | 0.0606 |  | 0.0534 | 0 | 0.0522 | 0.0599 | 0.0525 | 0.0605 | 0.0519 | 0.0472
11 | I167Y | 0.062 |  | 0.047 | 0.0589 | 0.0663 |  |  | 0.0585 |  | 0.0578 |  | 0.0797 | 0.0449 | 0.051 | 0.0574 | 0.0844 | 0.0639 | 0.0413 | 0.0566
12 | H168C | 0.0631 |  | 0.056 |  |  |  | 0.0804 | 0.0671 | 0.0544 |  | 0.0417 | 0.0429 |  | 0.106 | 0.056 |  |  |  | 0.0672
13 | N172E | 0.0582 | 0.0616 | 0.0625 |  | 0.0549 |  |  |  |  | 0.0664 | 0.0647 |  | 0.0669 |  |  |  | 0.0514 | 0.0593 | 0.0413
